# Experimental data taken from ChEMBL document CHEMBL4888484, “Replenishing the malaria drug discovery pipeline: Screening and hit evaluation of the MMV Hit Generation Library 1 (HGL1) against asexual blood stage Plasmodium falciparum ,using a nano luciferase reporter read-out” (2022).
# Screen size: about 150,000 compounds; about 540 (0.36%) showed an effect of 50% or more. The list shows a part of the results.
# System: Plasmodium falciparum
# Test: Primary screen in NF54 nanoGlo assay, in single point, at 2uM, 72h; a lower Z score goes with more inhibition
# Assay type: functional, Erythrocyte
# Settings: timepoint 72 hour
Compound,% Inhibition,Z score
CCCCc1nc(N2CCCN(C(=O)c3cccc(OC)c3)CC2)c2c(C)nn(-c3ccccc3)c2n1,2%,-0.16
Cc1oncc1CNC(=O)c1ccccc1CN1CCOCC1,-2%,0.25
O=C(N1CCCCCC1)N1CCNCC1,8%,-1.33
CC1=C(CCN2CCN(C)[C@@]3(CCNC(=O)CC3)C2)C(C)(C)CCC1,-14%,2.25
O=C(Nc1cc(F)c2nc(N3CCOCC3)ccc2c1)C1CCC1,-11%,1.68
O=C(CN1CCOCC1)N1CCN(Cc2cccc3cn[nH]c23)CC1,-5%,0.44
O=C(CCCC1CCOCC1)N(C1CCC1)C1CCC1,-13%,1.98
CCn1cnc2c(N3C4CCC3CC(=O)C4)ncnc21,0%,-0.01
Cc1ccnc([C@H]2CCN(C(=O)c3cc(C)nn3C3CCOCC3)C2)c1,-15%,2.32
Cc1nc(CNS(=O)(=O)N2CC(C)OC(C)C2)c(C)s1 (stereo not given),19%,-2.16
Cc1cc(Cl)ccc1NC(=O)C1CCN(S(=O)(=O)c2c(C)[nH]c(C)c2C(=O)N2CCCCC2)CC1,-9%,0.86
Cc1[nH]nc(CCC(=O)N2CCC[C@H](C(=O)Cc3ccccc3)C2)c1C,-1%,0.08
CN(C[C@H](O)c1cccnc1)c1nc(C2CCOCC2)ns1,-4%,0.65
Cc1[nH]ncc1C(=O)NC(C)(C)C(=O)NCC1CCCCC1,-7%,1.43
CCNC(=O)c1coc(CN2C(=O)COc3ccc(C(=O)COc4cccc(Cl)c4)cc32)n1,-5%,0.8
COC(=O)c1ccc(NC(=O)C2CN(C(=O)c3cnccn3)C2)cc1,-7%,1.15
O=C(CCC1CCN(S(=O)(=O)c2cccc(F)c2)CC1)NCCN1CCCCC1,-9%,1.24
CC1CN(c2cccc(C#N)n2)CC2(CCCOC2)O1 (stereo not given),-20%,3.14
CCN(CCC#N)Cn1ncc2cc(C(=O)OC)ccc21,-7%,0.98
CCCN(Cc1nc(C2CC2)no1)CC1CC1,-7%,1.02
CC(C)[C@H](NC(=O)c1ccco1)C(=O)N1CCN(C)c2ccccc21,-2%,0.19
O=C(Nc1ccsc1-c1nnc(C2CC2)o1)c1cc(F)ccc1F,-9%,0.95
O=C(CS(=O)(=O)[C@H]1CCc2c(F)cc(F)cc21)Nc1ccccc1Cl,-4%,0.59
COc1ccccc1NC(=O)c1ncoc1-c1ccco1,-4%,0.39
CCOC1CC(NC(C)C(=O)N(C)Cc2cccc(F)c2)C12CCCC2 (stereo not given),4%,-0.62
CC(C)c1ccc(N2C(=O)CN(Cc3ccccc3Cl)C3CS(=O)(=O)CC32)cc1 (stereo not given),-5%,0.65
COc1ccc(CN2CCN(C)CC2)cc1NC1CCC(OC)CC1 (stereo not given),-20%,2.17
CN(C)[C@@H]1C[C@@H](CO)N(Cc2ccccc2OCc2c(F)cccc2Cl)C1,-6%,0.7

Compound,% Inhibition,Z score
CC(=O)N1CCC([C@@H]2CN(C(=O)Cc3ccsc3)C[C@H]2CO)CC1,-2%,0.22
COCCNC(=O)c1ccc(-c2nc(CN3CCc4ccccc43)c(C)o2)cc1,-6%,0.73
CO[C@H]1CCN(C(=O)Nc2cc(C)nn2Cc2cccc(Cl)c2)C1,1%,-0.21
Cc1cccc(CC2(N[C@@H]3c4ccccc4C4(CCNCC4)[C@H]3O)CC2)c1,-13%,1.25
Cc1cc2cc(C(=O)NCc3nnc(C4CC4)o3)oc2cc1C,27%,-3.49
CN(CCc1ccccc1)c1cc(C2CC(N)C2)ncn1 (stereo not given),-10%,1.35
CN1CCC[C@@H]1CCNc1cc(-c2ccncc2)nc2ccnn12,3%,-0.41
COCc1ccc(C(=O)N[C@H]2COCC[C@@H]2O)o1,-15%,2.34
C#CCN(C)S(=O)(=O)c1cc(C)c(Cl)s1,-12%,1.26
CCc1ccnc(C(=O)NC2(c3ncon3)CCC2)c1,-7%,1.14
Cc1nc2c(c(NCc3cc(CC(C)C)on3)n1)CNC2,-1%,0.25
CN(CCn1cccn1)C(=O)C1CCN(Cc2ccco2)CC1,-1%,0.13
OCCCn1nc(C2(c3ccccc3)CC2)nc1CCc1cccnc1,-18%,1.62
O=C(C[C@@H]1Nc2ccccc2NC1=O)Nc1ccc(F)cc1,2%,-0.29
CC[C@@H](C(N)=O)N(C(=O)c1cc(O)nc2ccccc12)c1ccccc1,-16%,1.35
NC(=NCCc1cccnc1)Nc1cccc(Oc2ccccc2)c1,1%,-0.07
COc1ccc([C@H](C)NC(=O)c2nnn3c2c(=O)[nH]c2cc(C)ccc23)cc1,-3%,0.62
Cc1nc(NCc2nnc3n2CCCC3)c2sccc2n1,-12%,1.53
Cc1cccc(C(=O)N[C@H]2CCN(c3ccccc3)C2=O)c1,39%,-5.29
Nc1nc(O)cc(-c2cccc(C(=O)NCCc3nc4c(s3)CCC4)c2)n1,-14%,1.26
CO[C@H]1C[C@H](NC(=O)Nc2cc(-n3cccn3)ccc2C)C1,-14%,2.56
CC(C)c1nccc(C(=O)NCCc2nc3c(s2)CCC3)n1,-7%,1.46
Cc1n[nH]cc1CNC(=O)[C@@H](O)c1ccccc1,4%,-0.61
CCO[C@H]1CN(C)C[C@@H]1n1cnc2ccc(OC)cc2c1=O,-2%,0.45
O=C(NCc1ccc(F)cc1)N1CCCC[C@H]1c1noc(COc2ccc(F)cc2)n1,-12%,1.53
Cc1cc(CC(=O)NC2(C)CCCCCC2)no1,-6%,0.56
Cc1ccc2ncc(CN(C)[C@@H](C)c3cccnc3)n2c1,-1%,0.15
